According to patent US20030203451A1 (Genentech, published 2003):

Biological target: T1, recombinant IL-17 (baculovirus, Examples 33/34) (human)
T1 construct: also called soluble IL-17; immobilized IL-17
Experiment: SPR (BIAcore 1000), IL-17 immobilized on CM5 chip, IL-17R ECD in solution, 1:1 model

B1: IL-17R extracellular domain ([…]), baculovirus, Examples 33/34 (receptor)
chain: not shown
notes: range […]; also called IL-17R ECD
Kd: 72 nM | koff: 0.00067 s⁻¹ | kon: 9300 M⁻¹ s⁻¹
